Hit rate of the full screen: of about 48,000 compounds, about 120 (0.25%) were called active. Not shown: some 4% with an inconclusive outcome. The call rests on the fitted dose curve; in most records, active means well fitted activation curve with a large enough effect; inconclusive means small, poorly fitted or top-dose-only effect, or another doubt; inactive means no such curve, though single readings can be large or run the other way. The list shows a part of the results.
Test: Primary qHTS for Identification of Small Molecule Activators of Huntingtin-Antisense Promoter Activity; further: nearly all actives have a fitted effect of over 55% in size
Conditions: HEK293 HTT-AS promoter firefly luciferase reporter, 24 h; series mostly up to 57.5 µM; activity change, positive = activation: at the top concentration
Method in brief: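 Firefly luciferase signal from promoter-reporter HEK293 cells was scaled between vehicle (0%) and zero RLU (-100%). Compounds were tested at final concentrations of up to 57.5 uM over 24 h at 37 degrees C. PTC124 at 50 uM final served as control inhibitor.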

Activity change, positive = activation, inactive:
CCOc1ccc(NC(=O)CCC(=O)N2CCSc3ccccc32)cc1 -20.2%
CCc1ccccc1NC(=O)Cn1c(=O)n(CCc2ccccc2)c(=O)c2ccccc21 -15.3%
CCCC(=O)n1nc(-c2cccnc2)nc1NCc1ccccc1 6.58%
COc1ccc(N2CCN(C(=O)Nc3ccccc3Cl)CC2)cc1 -3%
COc1ccc(Cn2c(CCC(=O)Nc3ccc(OC)c(Cl)c3)nc3cccnc32)cc1 -28.3%
COc1ccc(NS(=O)(=O)c2c(C)nc3scc(C)n3c2=O)cc1 -17.4%
O=C(Nc1ccc2nc(SCC(=O)N3CCOCC3)sc2c1)c1cccc(F)c1 -13.7%
COc1cccc(NC(=O)CSC2=Nc3ccccc3C3=NC(CC(=O)NCc4ccccc4OC)C(=O)N23)c1 (stereo not drawn) -12.4%
CCCCNC(=O)CCSc1nc(-c2ccc3c(c2)OCO3)cc(C(F)(F)F)n1 -5.09%
O=c1oc2ccc(Cl)cc2cc1-c1cn2c(n1)sc1ccccc12 -21%
CCOC(=O)N1CCN(S(=O)(=O)N2CCCC(C(=O)NCc3ccc(OC)cc3OC)C2)CC1 (stereo not drawn) -15.9%
Cn1c(C(=O)N2CCC(C(=O)N3CCN(c4ccccc4)CC3)CC2)cc2sccc21 -20.6%
Cc1nnc(N2CCN(c3cccc(C(F)(F)F)c3)CC2)c2c1nnn2Cc1ccccc1 -16.4%
Cc1ccc(CNC(=O)c2c[nH]n3c(=O)c(Cc4ccc(F)cc4Cl)c(C)nc23)cc1 -32.7%
COc1ccc(N2Cc3cccc(C(=O)Nc4cccc(F)c4)c3C2=O)cc1 4.04%
Cc1noc2ncnc(NCc3ccc(Cl)cc3)c12 -45.3%
CN(C)c1ccc(C(=O)Nc2ccc(-c3nc4ccccc4o3)cc2)cc1 12.1%
Cc1cc(NC(=O)C2CCCN(S(=O)(=O)c3cn(C)cn3)C2)ccc1Br (stereo not drawn) -10.4%
CCOc1ccc(CC(=O)Nc2c(C(=O)c3ccc(F)cc3)oc3ccc(Cl)cc23)cc1OCC 3.04%
Cc1cc(C)cc(NC(=O)N2CCC(N3CCN(Cc4ccccc4)C(=O)C3=O)CC2)c1 0.261%
COc1ccc(Nc2c3c(nc4ccc(NC(=O)c5cc(Cl)ccc5OC)cc24)CCCC3)cc1OC -94.7%
O=C(Nc1ccc(C(=O)OCc2cc(=O)n3ccsc3n2)cc1)c1cccc(F)c1 5.77%
COc1ccc(OC)c(CNC(=O)C2CCN(S(=O)(=O)c3ccc4[nH]c(=O)oc4c3)CC2)c1 -10.4%
COc1ccc(NC(=O)c2c(NCc3cccs3)sc3c2CCCCC3)c(OC)c1 0%
Cc1cc(Br)ccc1NC(=O)CCNS(=O)(=O)c1cccc2nonc12 -17.9%
O=C(Nc1ccc(Br)cc1F)c1cc2nc(-c3ccco3)cc(C(F)(F)Cl)n2n1 -0.115%
CCCOc1ccc2nc(NC(=O)OC)[nH]c2c1
O=S(=O)(c1ccc(OC(F)(F)F)cc1)N1CCC(c2nc3ccccc3s2)CC1 -9.13%
COc1ccc2c(c1)CC(C(=O)Nc1ccc(OC)cc1OC)CO2 (stereo not drawn) -5.9%
CCOc1ccc(OCC)c(Nc2nc3ccc(C(=O)c4ccccc4)cc3n3cnnc23)c1 -6.91%
CC(=O)O[C@]1(C(C)=O)CC[C@H]2[C@@H]3C=C(Cl)C4=CC(=O)[C@@H]5C[C@H]5[C@]4(C)[C@@H]3CC[C@@]21C -51.5%
CCOC(=O)c1ccc(N2C(=O)c3n[nH]c(-c4cccs4)c3C2c2ccc(OC)cc2OC)cc1 (stereo not drawn) -51%
C[C@@H](O)[C@H]1C(=O)N2C(C(=O)OCOC(=O)C(C)(C)C)=C(SC3CN(C4=NCCS4)C3)[C@H](C)[C@H]12 -20.5%
Cc1ccc(NC(=O)c2ccc(N(Cc3ccccc3)S(C)(=O)=O)cc2)cc1 -39.7%
COc1cc(OC)c(C=CS(=O)(=O)Cc2ccc(OC)c(NCC(=O)O)c2)c(OC)c1 -41.6%
CC(C)c1ccc(C2=NC(c3ccncc3)=Nc3ccc(F)cc3N2)cc1 -5.93%
CCOC(=O)c1c(S(=O)(=O)N2CCN(c3cccc(C(F)(F)F)c3)CC2)c(C)n(C)c1C 1.24% [at 11.5 µM, percent change from vehicle, -100% = no light]
CCOc1ccc(Cn2c(CNS(=O)(=O)c3ccc(CC)cc3)nc3cccnc32)cc1 -18.6%
CCCn1cc(S(=O)(=O)c2ccc(CC)cc2)c(=O)c2cc(F)c(N3CCN(C)CC3)cc21 -5.2%
COc1ccc(OC)c(CCNC(=O)c2nn(C)c3c2CSc2ccccc2-3)c1 -18.2%
CCC1CCc2c(sc(NC(=O)C3c4ccccc4Oc4ccccc43)c2C(=O)OC)C1 (stereo not drawn) -26.9%
Cc1ccc(C(=O)c2oc3ccccc3c2NC(=O)C(C)Oc2ccccc2Cl)cc1 (stereo not drawn) -6.11%
CCOC(=O)N1CCC(NC(=O)c2ccc3c(c2)N(Cc2ccc(Cl)cc2)C(=O)c2ccccc2S3(=O)=O)CC1 -32%
COC(=O)c1sc2cccc(F)c2c1S(=O)(=O)Nc1cc(C)c(Cl)cc1OC -24.7%
CCCNC(=O)C1CCC(Cn2c(=O)c3sccc3n(CC(=O)N3CCCC3)c2=O)CC1 (stereo not drawn) -6%
CCc1cccc(C)c1NC(=O)CN1C(=O)c2ccccc2Sc2ncccc21 -12.5%
CCCNC(=O)CN1C(=O)c2c(c3ccccc3n2C)C1c1ccc(OC)cc1 (stereo not drawn) -22%
COc1ccc(CNC(=O)c2cc3oc4ccccc4c3n2C)cc1OC -22.5%
CN[C@@H]1[C@@H](O)[C@@H](O[C@@H]2[C@H](O)[C@H](O[C@H]3OC(CN)=CC[C@H]3N)[C@@H](N)C[C@H]2N)OCC1(C)O (stereo partly drawn) -1.2%
CCc1ccc(S(=O)(=O)c2nnn3c2nc(N2CCC(C(N)=O)CC2)c2cc(Cl)ccc23)cc1 -14.1%
CCCCOc1ccc(OCCCN2CCOCC2)cc1 2.65%
CCC(=O)Nc1ccccc1-c1nc2ccccc2n(CC(=O)Nc2ccc(C)c(C)c2)c1=O -19.9%
CCc1ccc(NC(=O)C2CCN(S(=O)(=O)c3c(C)noc3C)CC2)cc1 -14.7%
Cn1c(=O)c2cc(C(=O)Nc3cccc(C#N)c3)sc2c2ccccc21 -5.48%
COc1ccc(C2=NN(CC(=O)NCCc3ccccc3)C(=O)CC2)cc1 -8.26%
COC(=O)c1ccc(NC(=O)NC(C)c2c(-n3cccc3)sc(C)c2C)cc1 (stereo not drawn) -19.2%
COc1ccc(Cl)cc1NC(=O)c1sc2nc(-c3ccc(OC)c(OC)c3)ccc2c1N -33%
O=C(NCc1ccccc1)c1ccc2c(c1)N(Cc1ccc(F)cc1)CCS2 -23.8%
COc1ccc(CCNC(=O)CSCc2nc(-c3cccc(C)c3)oc2C)cc1OC -33.5%
O=C(NC1CCCC1)c1ccc(CSc2nc3cccnc3n2Cc2ccccc2)cc1 -19.8%
COc1ccccc1Cc1nc2ccccc2nc1SCC(=O)N1CCc2ccccc21 0.231%
COc1cc(N)c(Cl)cc1C(=O)NC1CCN(Cc2ccccc2)CC1 -12%
CCOC(=O)c1ccc(NC(=O)CSc2nccn2-c2ccc(OCC)cc2)cc1 -32.5%
FC(F)(F)c1cccc(-c2nnn3c2nc(NC2CCCCC2)c2ccccc23)c1 -3.01%
Cc1cccc(N2CCN(C(=O)Cn3cnc4sc(C)c(S(=O)(=O)N5CCN(c6ncccn6)CC5)c4c3=O)CC2C)c1 (stereo not drawn) -17.2%
CCC(C)NC(=O)C1CCN(C(=O)c2ccc(-n3ccc4ccccc43)s2)CC1 (stereo not drawn) 9.09%
COc1ccccc1CCNC(=O)Cc1c(C)c2c(cc(C)c3c(C)c(C)oc32)oc1=O -3.75%
COc1cc([N+](=O)[O-])ccc1NC(=O)N1CCN(c2cc(-c3noc(C)n3)ccc2C)CC1 -23.9%
S=P(N1CC1)(N1CC1)N1CC1
COc1ccc(NC(=O)C(C)n2nnc3sc(-c4ccccc4)cc3c2=O)cc1Cl (stereo not drawn) 19.1%
CCOc1ccc(CCNC(=O)c2cc(=O)[nH]c3ccc(S(=O)(=O)N4CCCCC4)cc23)cc1OCC -8.73%
CCOc1ccccc1CNC(=O)C1CCN(S(=O)(=O)c2c(C)noc2/C=C/c2ccc(C)cc2)CC1 -6.48%
CC(C)(C)NC(=O)Nc1cccc(Nc2ncc(F)c(NC(C)(C)CO)n2)c1 -26.3%
CCn1ccc2cc(S(=O)(=O)N3CCCN(C(=O)Nc4ccc(C)c(F)c4)CC3)ccc21 -29.5%
CCCc1ccc(OCC(=O)Nc2sc3c(c2C(=O)OC)CCCCC3)cc1 -11.2%
CC(C)CC(=O)NCC1(N(C)C)CCCCC1 3.05%
Cc1cccc(N(C)c2nc3ccc(C)cc3n3cnnc23)c1 13.5%
CCCCOc1ccccc1C(=O)Nc1nonc1-c1ccccc1 -42%
COc1ccc(CNC(=O)C(C)N2Cc3ccccc3C2=O)cc1 (stereo not drawn) 5.79%
Cc1nc(-c2ccccc2)sc1CCNC(=O)C(=O)Nc1ccc2c(c1)OCCO2 -3.71%
Cc1ccc(CNC(=O)CCCN2C(=O)c3cccnc3Oc3ccc(Cl)cc32)cc1 -26.2%
COc1cc(OC)c(NC(=O)N2CCc3c(sc4c3CCCC4)C2c2ccccc2)cc1Cl (stereo not drawn) -18.2%
O=C(Nc1nnc(S(=O)(=O)N2CCCCCC2)s1)c1ccccc1Cl -16.7%
CCOc1ccc(NC(=O)c2cc3c(s2)-c2ccccc2OC3)cc1 -9.89%
Cc1cccc(NC(=O)C(Cc2ccccc2)n2cccc2)c1C (stereo not drawn) -19.4%
COc1cccc(CNC(=O)c2ccc(-c3nc(CS(=O)(=O)c4ccccc4)c(C)o3)cc2)c1 -36%
COC(=O)c1ccc2c(=O)n(CCCCCC(=O)N3CCN(c4cc(Cl)ccc4C)CC3)c(=O)[nH]c2c1 -64.7%
CN(C)CCNC(=O)CN1C(=O)CCn2nc(-c3cn(C)c4ccccc34)cc21 0.159%
Cc1cc(C)cc(-n2nnc(-c3nsc(NC(=O)c4ccccc4Cl)n3)c2C)c1 -22%
CCc1ccc(NC(=O)Cn2ncc3c(C)n(Cc4cccc(Cl)c4)c(C)c3c2=O)cc1 -5.36%
COc1ccccc1Nc1c2c(nc3ccc(NC(=O)c4cccc(OC)c4OC)cc13)CCCC2 -51.1%
COC(=O)c1cc2sccc2n1Cc1nc(-c2cccc(Br)c2)oc1C 6.42%
CC(=O)Nc1ccc(S(=O)(=O)NCc2ccc(C(=O)NCc3ccc(Cl)cc3)cc2)cc1 -28.1%
